PubChem BioAssay (Tox21)
Values joined by “and” are separate entries in the source; they are usually repeats but may differ in a detail not shown here. Equal entries are not always repeated. The inconclusive results got no clear call from the source; some entries with a clear call stand among them for comparison. The call rests on the fitted dose curve; in most records, active means well fitted curve in the direction sought with a large enough effect in the repeat runs; inconclusive means weak or mixed curves; inactive means no such curve, though single readings can be large; an effect the other way counts as inactive or inconclusive. For part of these data: No potency is given beside an inconclusive call; the fits are too rough. Where a structure was tested more than once in an assay, its records may differ in their call.

Tests used:
[1] = qHTS assay for identifying genotoxic compounds that show differential cytotoxicity against isogenic chicken DT40 cell lines with known DNA damage response pathways - wild type cell line (AID 743012); details: DT40 wild type chicken cells viability, CellTiter-Glo, 40 h; activity change, negative = cytotoxicity: at 68.4 µM (top of the series) unless noted; further: nearly all actives have a fitted effect of over 60% in size
Method in brief: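 Endpoint: CellTiter-Glo luminescence, 30 min RT. Cells: wild type DT40, 300/well. Exposure: compounds in DMSO, 40 h, 37 C/5% CO2, after ~0.5 h pre-incubation.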

[2] = qHTS assay for identifying genotoxic compounds that show differential cytotoxicity against isogenic chicken DT40 cell lines with known DNA damage response pathways - Rev3 mutant cell line (AID 743014); details: chicken DT40 Rev3-/- viability, CellTiter-Glo, 40 h; series mostly up to 68.4 µM; further: nearly all actives have a fitted effect of over 55% in size
[3] = qHTS assay for identifying genotoxic compounds that show differential cytotoxicity against isogenic chicken DT40 cell lines with known DNA damage response pathways - Rad54/Ku70 mutant cell line (AID 743015); details: DT40 Rad54/Ku70 mutant viability, CellTiter-Glo, 40 h; activity change, negative = cytotoxicity: at 66.8 µM (top of the series); further: nearly all actives have a fitted effect of over 60% in size
Potency means the concentration at half of the fitted maximal effect; tags describe the fitted curve by direction and shape.

CC(C)C(=O)OCC(C)(C)C(OC(=O)C(C)C)C(C)C (stereo not drawn)
Potency [1]: inconclusive [rising, single point]
Potency [2]: inactive and active: 19.3 µM
Potency [3]: inconclusive [rising, partial curve, poor fit]
